The full ranking holds about 81,000 sequences; the median of “one-hybrid fitness for binding NBS DNA” is about -0.1, and the highest 2% start at about 0.36. The list shows a part of the results.
B1: Caulobacter ParB omega fusion; a variant is named by its letters at X, in order, B8GW30 (parent)
chain: MESVVVGEPGMSEGRRGLGRGLSALLGEVDAAPAQAPGEQLGGSREAPIEILQRNPDQPRRTFREEDLEDLSNSIREKGVLQPILVRPSPDTAGEYQIVAGERAWRAAQRAGLKTVPIMVRELDDLAVLEIGIIENVQRADLNVLEEALSYKVLMEKFERTQENIAQTIGKSXSHVANXMRLLXLPDEVQSYLVSGELTAXHARAIAAAADPVALAKQIIEGGLSVRETEALARKAPNLSAGKSKGGRPPRVKDTDTQALESDLSSVLGLDVSIDHRGSTGTLTITYATLEQLDDLCNRLTRGI

Variants of: B1
Experiment: one-hybrid fitness for binding NBS DNA (the Noc-binding site; scaled: cognate 1, non-cognate 0); higher = stronger binding
Details: with NBS DNA site
In short: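 On M9-minus-histidine containing 0.1 mM IPTG and 5 mM 3-AT, E. coli USO cells with a HIS3 reporter, site 19 bp from the promoter, grew 48 hours at 37°C to select Caulobacter ParB libraries randomised at four specificity codons. Plasmids from before and after were Illumina-sequenced, with three replicate libraries pooled and variants under 10 reads left out. Fitness is the log change in variant-to-wild-type read ratio, rescaled against cognate and non-cognate.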

Variant | one-hybrid fitness for binding NBS DNA
YEYG | ≤ 0.2
YTSR | ≤ 0.2
HVFI | ≤ 0.2
PSEM | ≤ 0.2
CKSA | ≤ 0.2
LDVF | ≤ 0.2
HLPR | ≤ 0.2
SSML | ≤ 0.2
GMFN | ≤ 0.2
TLEL | ≤ 0.2
ELRT | ≤ 0.2
TCFA | ≤ 0.2
MDSF | ≤ 0.2
AQET | ≤ 0.2
KTDC | ≤ 0.2
PSAW | ≤ 0.2
QLGD | ≤ 0.2
CKTS | ≤ 0.2
QFSF | ≤ 0.2
AYCL | ≤ 0.2
ELGN | ≤ 0.2
QGPK | ≤ 0.2
AELD | ≤ 0.2
RFFF | ≤ 0.2
PMAK | ≤ 0.2
AGQI | ≤ 0.2

Variant | one-hybrid fitness for binding NBS DNA
QNNE | ≤ 0.2
ELEV | ≤ 0.2
NEKG | ≤ 0.2
KSWC | ≤ 0.2
PITP | ≤ 0.2
FQCR | ≤ 0.2
VPEQ | ≤ 0.2
HCTQ | ≤ 0.2
PEVV | ≤ 0.2
ETQY | ≤ 0.2
RWMA | ≤ 0.2
LFCV | ≤ 0.2
FLIY | ≤ 0.2
VEKK | ≤ 0.2
QVNM | ≤ 0.2
RAQG | ≤ 0.2
MAPF | ≤ 0.2
EVKC | ≤ 0.2
WVVS | ≤ 0.2
PIRT | ≤ 0.2
DFNY | ≤ 0.2
NIVS | ≤ 0.2
RLEQ | ≤ 0.2
VSEM | ≤ 0.2
TWPS | ≤ 0.2
NPFS | ≤ 0.2

Variant | one-hybrid fitness for binding NBS DNA
RDYC | ≤ 0.2
NRLI | ≤ 0.2
MIYY | ≤ 0.2
MYTT | ≤ 0.2
VPQT | ≤ 0.2
KGTT | ≤ 0.2
CNLW | ≤ 0.2
CNKA | ≤ 0.2
VKKC | ≤ 0.2
DSSS | ≤ 0.2
AINL | ≤ 0.2
QLRQ | 0.339
FESV | ≤ 0.2
VPHT | ≤ 0.2
YMHG | ≤ 0.2
IAQC | ≤ 0.2
QLEL | ≤ 0.2
PPCM | ≤ 0.2
RSPQ | ≤ 0.2
THNM | ≤ 0.2
MFPR | ≤ 0.2
TWTN | ≤ 0.2
PEKC | ≤ 0.2
PDQD | ≤ 0.2
CRID | ≤ 0.2
AIWG | ≤ 0.2

Variant | one-hybrid fitness for binding NBS DNA
NSMD | ≤ 0.2
PDRA | ≤ 0.2
RARR | 0.635
SYIR | ≤ 0.2
LTMS | ≤ 0.2
MKWM | ≤ 0.2
NQNG | ≤ 0.2
MTGT | ≤ 0.2
NSRH | ≤ 0.2
IQFR | ≤ 0.2
DFYS | ≤ 0.2
YYAK | ≤ 0.2
PWVA | ≤ 0.2
PREA | ≤ 0.2
RTEE | ≤ 0.2
KRKR | 0.849
RMRG | ≤ 0.2
RLHE | ≤ 0.2
KKKA | ≤ 0.2
DNPT | ≤ 0.2
EFLR | ≤ 0.2
IPWG | ≤ 0.2
QFRW | ≤ 0.2
KLAL | ≤ 0.2
FARH | ≤ 0.2
RIVI | ≤ 0.2

Variant | one-hybrid fitness for binding NBS DNA
KPKH | ≤ 0.2
VSVW | ≤ 0.2
AENR | ≤ 0.2
ISKA | ≤ 0.2
DEVS | ≤ 0.2
NWSV | ≤ 0.2
QRIE | ≤ 0.2
EFHC | ≤ 0.2
HTSF | ≤ 0.2
PTDN | ≤ 0.2
LPCL | ≤ 0.2
QMCY | 0.212
LVHQ | ≤ 0.2
NVIS | ≤ 0.2
RREY | 0.262
HHMG | ≤ 0.2
QYLY | ≤ 0.2
LNLV | ≤ 0.2
IHDR | ≤ 0.2
DNAG | ≤ 0.2
TYTF | ≤ 0.2
QTQW | ≤ 0.2
TEAT | ≤ 0.2
KDKY | ≤ 0.2
DKGL | ≤ 0.2
PGQY | ≤ 0.2

Variant | one-hybrid fitness for binding NBS DNA
RSLQ | ≤ 0.2
WQQT | ≤ 0.2
AENE | ≤ 0.2
ETPY | ≤ 0.2
PVAT | ≤ 0.2
AQSR | ≤ 0.2
TRYK | ≤ 0.2
TYIT | ≤ 0.2
LVSD | ≤ 0.2
HLMY | ≤ 0.2
KKGR | 0.245
ATGT | ≤ 0.2
KLMY | ≤ 0.2
RPPY | ≤ 0.2
CGGA | ≤ 0.2
KTTT | ≤ 0.2
VPWG | ≤ 0.2
RNRI | ≤ 0.2
QRMD | 0.26
KKDL | ≤ 0.2
LRCC | ≤ 0.2
MAPI | ≤ 0.2
THHI | ≤ 0.2

Reference: a collection of fitness landscapes (doi:10.1016/j.celrep.2020.107928)
